Experimental data reported in ChEMBL document CHEMBL1157539, “Thousands of chemical starting points for antimalarial lead identification” (Nature, 2010).
Over roughly 13,000 compounds, “IFI” has its median near 4; the highest 2% begin near 17. Some of the results follow.

experiment: GSK_TCMDC: Inhibition Frequency Index (IFI). The number of non-kinase HTS assays where a compound showed > 50 % inhibition, expressed as a percentage of the number of such assays in which the compound was tested (-0 is zero); assay type: functional

Compound	IFI [%]
Oc1ccc(CCCNc2nc(NCc3ccccc3-c3ccccc3)nc(NC3CCNCC3)n2)cc1	15.2
O=[N+]([O-])c1ccc(C(O)P(=O)(c2ccccc2)c2ccccc2)cc1 (configuration not stated)	0.76
COc1ccc(-c2ccc(NC(=O)c3cccc(Cl)c3)cc2)cc1CN(C)CCO	5
COc1ccc(OC)c(C=NNc2nc3ccccc3[nH]2)c1	0.74
Fc1ccccc1COc1ccc(Nc2ncnc3ccc(I)cc23)cc1Cl	2.22
O=C(Nc1ccc(CCNC2=NCCN2)cc1)Nc1ccc(CCNC2=NCCN2)cc1	-0
COc1ccc(NC(=O)[C@H](CC(C)C)Nc2cc(C)nc(NCc3ccccc3C)n2)cc1	4.88
OC1CCCN(Cc2ccc(-c3ccc(-c4nc5cc(F)ccc5[nH]4)cc3)cc2)C1 (configuration not stated)	5.63
CCCn1cc2c(ccc3nc(N)nc(N)c32)n1	2.24
NC(=O)c1ccc(NCC(=O)Nc2cccc(-c3cccc(-c4nc5cc(F)ccc5[nH]4)c3)c2)cc1	9.52
O=C(Nc1cccc(N2CCC(NCCCn3ccnc3)CC2)c1)c1cccc(C(F)(F)F)c1	0
COc1cc(-c2cnc(N)c(-c3nc4ccccc4[nH]3)c2)cc(OC)c1OC	11.4
C=C[C@]1(C)C[C@@H](OC(=O)NC(=O)C2CCN(C(=O)CSc3ccccc3)CC2)[C@]2(C)[C@H](C)CC[C@]3(CCC(=O)[C@H]32)[C@@H](C)[C@@H]1O	2.26
CCCc1nc2c(N3CCCN(C(=O)NC4CCCCC4)CC3)cccc2n1Cc1ccccn1	7.14
O=C(O)c1cc(C(F)(F)F)co1	0.74
Cc1nc(-c2cccc(NCc3ccccc3)c2)[nH]c1C	4
Cc1ncc([N+](=O)[O-])n1CCOC(=O)NC(Nc1ccc(Br)cc1)C(Cl)(Cl)Cl (configuration not stated)	2.4
Cn1cc(CCNc2ccnc(NCCc3coc4ccccc34)n2)c2ccccc21	16.7
FC(F)(F)c1ccc2nccc(NCc3ccccc3)c2c1	1.47

Compound	IFI [%]
Cc1[nH]c(C)c(-c2ccc(OCCSc3ccncc3)cc2)c(=O)c1Br	3.7
O=C(COc1cccc([N+](=O)[O-])c1)Nc1ccc(-c2nc3ccccc3[nH]2)cc1	-0
NC(=O)c1cnc2cc(-c3ccoc3)ccc2c1Nc1ccc(NC(=O)Nc2ccccc2Cl)cc1	4.79
COc1cccc(-c2ccc(C(=O)NC3CCN(Cc4ccc(C(C)(C)C)cc4)CC3)s2)c1	12.3
CC(C)c1cc(C(=O)N[C@@H](Cc2ccccc2)[C@H](O)CNC2CCCCC2)cc(N2CCCC2=O)c1	2.21
CCN(CCCN1CCCCC1)c1cc(C)nc(Nc2ccc(C)c(Br)c2)n1	8.86
NC(=O)c1cccc(C(=O)Nc2cccc(-c3csc(-c4nc5ccccc5[nH]4)c3)c2)c1	1.87
Oc1nc(Cc2ccccc2)nc2ccc(Cl)cc12	0
Fc1ccc(CNc2nc(-c3ccc(F)c(C(F)(F)F)c3)n(-c3cccc(C(F)(F)F)c3)n2)cc1	2.44
CC(C)N1CCC(N(Cc2ccc(-c3ccc(C(F)(F)F)cc3)cc2)C(=O)Cn2c(SCc3cccc(F)c3F)cc(=O)c3ccccc32)CC1	6.52
CC12CCC(=O)N1C(C(=O)Nc1cccc(C(=O)Nc3cccc(C(F)(F)F)c3)c1)CS2 (configuration not stated)	0
Cc1cc(N[C@@H](Cc2ccccc2)C(=O)NCCOc2ccccc2)nc(NCCc2ccccc2)n1	16.3
CC(C)c1ccc(CN2CCC(CNC(=O)c3cc(-c4ccc(N(C)C)cc4)cs3)C2)cc1 (configuration not stated)	10
O=C1NC(=O)C(c2ccc(Cl)cc2)=C1Nc1cccc(S(=O)(=O)C(F)(F)F)c1	0.72
Cc1cc(N2CCC(NS(=O)(=O)c3ccc(F)cc3)CC2)nc(Nc2cccc(C#N)c2)n1	3.85
COc1c(CN2CCOCC2)cccc1-c1cc2c(-c3ccc(C(=O)O)c(C(C)C)c3)ccnc2[nH]1	-0
OCCn1c(CNCCCNc2nc3ccccc3[nH]2)cc2c(Cl)cc(Cl)cc21	6.38
O=C(Oc1ccc(C2CNCCc3c2cc(OC(=O)c2ccc(O)cc2)c(OC(=O)c2ccc(O)cc2)c3Cl)cc1)c1ccc(O)cc1 (configuration not stated)	5.07
CC(Cc1ccc(OCc2ccccc2)cc1)Nc1nc(O)c2ccccc2n1 (configuration not stated)	4.14

Compound	IFI [%]
COc1ccc(OCC(O)CN(Cc2ccccc2OC)C(=O)Nc2ccc(Br)cc2)cc1 (configuration not stated)	3.55
O=C(/C=C/c1ccccc1F)NC1CCC(CCN2CCc3ccc(-c4cccnc4)cc3CC2)CC1 (configuration not stated)	5.76
Cc1nn(CC(C)C)c2sc(C(=O)Nc3nc(-c4ccccn4)cs3)cc12	10
COc1ccc(C)c(Nc2ccnc(Nc3ccc(-c4cnc[nH]4)cc3)n2)c1	12.9
OCc1ccc(-c2cncc(Nc3ccc(F)c(Cl)c3)c2)cc1	6.02
CNC(=O)Cc1ccc(C(=O)Nc2cccc(-c3cccc(-c4nc5cccc(C)c5[nH]4)c3)c2)cc1	2.73
CC(=O)Nc1ccc(OCCCCN(Cc2ccccc2C(F)(F)F)c2ccc(C(F)(F)F)c(C#N)c2)c(Cl)c1	1.52
Cc1cc(=NN=Cc2ccccc2Cl)c2ccccc2[nH]1	0.72
CC(C)N1CCC(N(Cc2ccc(-c3ccc(C(F)(F)F)cc3)cc2)C(=O)CCCn2c(CCc3cccc(F)c3F)nc(=O)c3ccccc32)CC1	7.91
Cc1ccc(CN2CCN(Cc3cccc(NC(=O)c4ccc5ccccc5c4)c3)CC2)cc1C	5.59
Nc1nc2c(ncn2COC2COP(=O)(O)OC2)c(=O)[nH]1 (configuration not stated)	1.52
O=C(NCC1CCC(CNCCCc2ccccc2)CC1)c1cc(Cl)cc(Cl)c1 (configuration not stated)	4.93
Cc1cc(N[C@@H](CC(C)C)C(=O)NCCOc2ccccc2)nc(NCCOc2ccccc2)n1	6.98
Brc1ccsc1-c1nc(NC2CCN(Cc3ccccc3)CC2)no1	-0
Cc1[nH]c2ccccc2c1C(=O)C(C)Sc1nnc(-c2ccccc2Br)[nH]1 (configuration not stated)	3.08
O=C(/C=C/c1ccc(Cl)c(Cl)c1)NC1CCC(CN2CCC(c3cc4ccccc4[nH]3)CC2)CC1 (configuration not stated)	1.48
CN(c1ccccc1)S(=O)(=O)c1cccc(NC(=O)c2ccc(-n3ccnc3)c([N+](=O)[O-])c2)c1	17.2
COc1ccc(CCN(Cc2cccs2)C(=O)c2cc3sccc3n2C)cc1OC	2.33
CC(C)c1ccc(NC(=O)NCC2CCCN(CCCCCNC(=O)/C=C/c3ccc(Cl)c(Cl)c3)C2)cc1 (configuration not stated)	12.1
